Some of the results follow. The list includes weakly bound sequences.
target: T1, MBP-FoxP3dN (UniProt Q99JB6); experiment: PD-seq (MBP pull-down with sequencing); conditions: 20 mM Tris-HCl pH 7.5, 100 mM NaCl, 1.5 mM MgCl2, 0.4 uM protein, 0.1 uM dsDNA library, 30 min, room temperature, amylose pull-down; high values mean tight binding; double strand, one strand shown
T1 sequence: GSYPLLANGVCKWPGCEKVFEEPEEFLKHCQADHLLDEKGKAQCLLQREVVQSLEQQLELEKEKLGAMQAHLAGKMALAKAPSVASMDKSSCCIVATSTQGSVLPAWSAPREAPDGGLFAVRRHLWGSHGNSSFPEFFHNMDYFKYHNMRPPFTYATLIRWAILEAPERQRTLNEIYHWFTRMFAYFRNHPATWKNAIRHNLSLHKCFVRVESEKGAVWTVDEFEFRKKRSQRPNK

Row | Sequence | binding signal (RPM ratio (pull-down/input))
1 | GATGATTGTTCTCCCAGCTGATGAATTTTAGTTGTCGAGTAAACAAATTTTCCTAATCTTTCTGTTCAAGCGCCATCTAC | 1.71
2 | GATGATTGTTCTCCCAGCTGATGAATTCGACTTCTCGAGTAAACAAATTTTCCTAATCTTTCTGTTCAAGCGCCATCTAC | 0.526
3 | GATGATTGTTCTCCCAGCTGATGAATTCGGTCTCTCGAGTAAACAAATTTTCCTAATCTTTCTGTTCAAGCGCCATCTAC | 0.541
4 | GATGATTGTTCTCCCAGCTGATGAATTGTCTTGCTCGAGTAAACAAATTTTCCTAATCTTTCTGTTCAAGCGCCATCTAC | 0.461
5 | GATGATTGTTCTCCCAGCTGATGAATTAATGCAATCGAGTAAACAAATTTTCCTAATCTTTCTGTTCAAGCGCCATCTAC | 4.42
6 | GATGATTGTTCTCCCAGCTGATGAATTGTCCCAATCGAGTAAACAAATTTTCCTAATCTTTCTGTTCAAGCGCCATCTAC | 0.382
7 | GATGATTGTTCTCCCAGCTGATGAATTTACAGACTCGAGTAAACAAATTTTCCTAATCTTTCTGTTCAAGCGCCATCTAC | 0.388
8 | GATGATTGTTCTCCCAGCTGATGAATTCTACTTATCGAGTAAACAAATTTTCCTAATCTTTCTGTTCAAGCGCCATCTAC | 0.967
9 | GATGATTGTTCTCCCAGCTGATGAATTGGCTATATCGAGTAAACAAATTTTCCTAATCTTTCTGTTCAAGCGCCATCTAC | 0.571
10 | GATGATTGTTCTCCCAGCTGATGAATTGATGTGGTCGAGTAAACAAATTTTCCTAATCTTTCTGTTCAAGCGCCATCTAC | 1.03
11 | GATGATTGTTCTCCCAGCTGATGAATTTCAGAATTCGAGTAAACAAATTTTCCTAATCTTTCTGTTCAAGCGCCATCTAC | 0.505
12 | GATGATTGTTCTCCCAGCTGATGAATTAGTCATATCGAGTAAACAAATTTTCCTAATCTTTCTGTTCAAGCGCCATCTAC | 0.931
13 | GATGATTGTTCTCCCAGCTGATGAATTTTGGTCCTCGAGTAAACAAATTTTCCTAATCTTTCTGTTCAAGCGCCATCTAC | 0.394
14 | GATGATTGTTCTCCCAGCTGATGAATTGGCGCGGTCGAGTAAACAAATTTTCCTAATCTTTCTGTTCAAGCGCCATCTAC | 0.4
15 | GATGATTGTTCTCCCAGCTGATGAATTCGGGTCGTCGAGTAAACAAATTTTCCTAATCTTTCTGTTCAAGCGCCATCTAC | 0.655
16 | GATGATTGTTCTCCCAGCTGATGAATTTTCAGGCTCGAGTAAACAAATTTTCCTAATCTTTCTGTTCAAGCGCCATCTAC | 0.19
17 | GATGATTGTTCTCCCAGCTGATGAATTACATTGATCGAGTAAACAAATTTTCCTAATCTTTCTGTTCAAGCGCCATCTAC | 0.682
18 | GATGATTGTTCTCCCAGCTGATGAATTAGCAGTCTCGAGTAAACAAATTTTCCTAATCTTTCTGTTCAAGCGCCATCTAC | 0.574
19 | GATGATTGTTCTCCCAGCTGATGAATTGCCCTAATCGAGTAAACAAATTTTCCTAATCTTTCTGTTCAAGCGCCATCTAC | 0.376
20 | GATGATTGTTCTCCCAGCTGATGAATTTAACTTATCGAGTAAACAAATTTTCCTAATCTTTCTGTTCAAGCGCCATCTAC | 0.625

Row | Sequence | binding signal (RPM ratio (pull-down/input))
21 | GATGATTGTTCTCCCAGCTGATGAATTGCCTCAGTCGAGTAAACAAATTTTCCTAATCTTTCTGTTCAAGCGCCATCTAC | 0.562
22 | GATGATTGTTCTCCCAGCTGATGAATTACGTCGATCGAGTAAACAAATTTTCCTAATCTTTCTGTTCAAGCGCCATCTAC | 0.397
23 | GATGATTGTTCTCCCAGCTGATGAATTGCAGGGCTCGAGTAAACAAATTTTCCTAATCTTTCTGTTCAAGCGCCATCTAC | 0.493
24 | GATGATTGTTCTCCCAGCTGATGAATTCAAGATGTCGAGTAAACAAATTTTCCTAATCTTTCTGTTCAAGCGCCATCTAC | 0.291
25 | GATGATTGTTCTCCCAGCTGATGAATTCCCTCCCTCGAGTAAACAAATTTTCCTAATCTTTCTGTTCAAGCGCCATCTAC | 0.24
26 | GATGATTGTTCTCCCAGCTGATGAATTGCAAAGATCGAGTAAACAAATTTTCCTAATCTTTCTGTTCAAGCGCCATCTAC | 0.498
27 | GATGATTGTTCTCCCAGCTGATGAATTTTGCCAATCGAGTAAACAAATTTTCCTAATCTTTCTGTTCAAGCGCCATCTAC | 0.864
28 | GATGATTGTTCTCCCAGCTGATGAATTGTCACTTTCGAGTAAACAAATTTTCCTAATCTTTCTGTTCAAGCGCCATCTAC | 0.742
29 | GATGATTGTTCTCCCAGCTGATGAATTTTTGAACTCGAGTAAACAAATTTTCCTAATCTTTCTGTTCAAGCGCCATCTAC | 0.235
30 | GATGATTGTTCTCCCAGCTGATGAATTCCCTATCTCGAGTAAACAAATTTTCCTAATCTTTCTGTTCAAGCGCCATCTAC | 0.3
31 | GATGATTGTTCTCCCAGCTGATGAATTTTCACCCTCGAGTAAACAAATTTTCCTAATCTTTCTGTTCAAGCGCCATCTAC | 0.233
32 | GATGATTGTTCTCCCAGCTGATGAATTGTAAATGTCGAGTAAACAAATTTTCCTAATCTTTCTGTTCAAGCGCCATCTAC | 0.55
33 | GATGATTGTTCTCCCAGCTGATGAATTACACCAGTCGAGTAAACAAATTTTCCTAATCTTTCTGTTCAAGCGCCATCTAC | 0.338
34 | GATGATTGTTCTCCCAGCTGATGAATTCCGTTACTCGAGTAAACAAATTTTCCTAATCTTTCTGTTCAAGCGCCATCTAC | 1.19
35 | GATGATTGTTCTCCCAGCTGATGAATTTTATCGGTCGAGTAAACAAATTTTCCTAATCTTTCTGTTCAAGCGCCATCTAC | 0.351
36 | GATGATTGTTCTCCCAGCTGATGAATTACATGAATCGAGTAAACAAATTTTCCTAATCTTTCTGTTCAAGCGCCATCTAC | 0.385
37 | GATGATTGTTCTCCCAGCTGATGAATTAATACGATCGAGTAAACAAATTTTCCTAATCTTTCTGTTCAAGCGCCATCTAC | 0.484
38 | GATGATTGTTCTCCCAGCTGATGAATTCCCCAATTCGAGTAAACAAATTTTCCTAATCTTTCTGTTCAAGCGCCATCTAC | 0.199
39 | GATGATTGTTCTCCCAGCTGATGAATTTCGTATGTCGAGTAAACAAATTTTCCTAATCTTTCTGTTCAAGCGCCATCTAC | 2.73
40 | GATGATTGTTCTCCCAGCTGATGAATTGAGACCGTCGAGTAAACAAATTTTCCTAATCTTTCTGTTCAAGCGCCATCTAC | 0.383
